Assay results published in PubChem BioAssay AID1768 (National Center for Advancing Translational Sciences (NCATS), 2009).
The campaign covered roughly 270,000 compounds. About 620 (0.23%) were called active. The shares of active, inactive and inconclusive entries below differ from those in the screen. Calls come from the whole dose curve; as a rule, active = well fitted inhibition curve with a large enough effect in the polarisation, with a control signal flat (not every such curve was filed as active); inconclusive = small, poorly fitted or top-dose-only effect, or effect the other way, or a change in a side signal; inactive = no such curve, though single readings can be large or run the other way; the % refers to the polarisation. A potency beside an inconclusive call is a rough fit, not a confirmed value. “Side channel” marks fits to a control or component signal instead of the main read-out.

target: Menin (Homo sapiens) (UniProt O00255); test: qHTS Assay for Inhibitors Targeting the Menin-MLL Interaction in MLL Related Leukemias: Competition With Texas Red Labeled MLL-derived Mutant Peptide; conditions: fluorescence polarization; FP activity change, negative = inhibition: at 61.6 µM (top of the series); for FP activity change, negative = inhibition: % of control where 0% means no effect
Potency is the fitted concentration of half-maximal effect; tags give direction and shape of the fitted curve or compound fluorescence and quenching.

Chain of UniProt O00255 (O00255 whole entry, looked up): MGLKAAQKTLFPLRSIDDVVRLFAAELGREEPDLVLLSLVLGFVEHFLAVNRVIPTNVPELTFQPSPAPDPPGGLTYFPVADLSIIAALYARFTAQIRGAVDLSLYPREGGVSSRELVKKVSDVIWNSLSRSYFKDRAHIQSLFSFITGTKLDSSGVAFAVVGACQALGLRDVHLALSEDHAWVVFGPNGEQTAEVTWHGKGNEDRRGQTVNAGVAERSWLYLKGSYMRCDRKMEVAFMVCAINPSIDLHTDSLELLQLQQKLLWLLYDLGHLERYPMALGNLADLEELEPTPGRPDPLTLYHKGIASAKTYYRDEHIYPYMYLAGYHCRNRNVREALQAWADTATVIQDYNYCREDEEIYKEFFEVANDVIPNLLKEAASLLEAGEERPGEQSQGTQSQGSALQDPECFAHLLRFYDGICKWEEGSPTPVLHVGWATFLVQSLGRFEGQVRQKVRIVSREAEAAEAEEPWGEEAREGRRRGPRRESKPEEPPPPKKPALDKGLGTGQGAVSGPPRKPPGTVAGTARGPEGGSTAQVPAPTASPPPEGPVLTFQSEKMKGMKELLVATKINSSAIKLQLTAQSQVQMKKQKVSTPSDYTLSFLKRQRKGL

Structure (SMILES) | Potency | FP activity change, negative = inhibition
COc1ccc2nc(C)cc(SCC(=O)N/N=C/c3ccc(O)c(O)c3)c2c1 | inconclusive: 22.4 µM [quencher, side channel, single point] | –
CC(=O)c1cccc(NC(=O)c2ccc3c(c2)CCN3S(=O)(=O)c2ccccc2)c1 | inconclusive: 7.08 µM [quencher, side channel, partial curve] | –
Cc1ccccc1C(=O)NNC(=S)NC(=O)c1ccccc1 | – | inactive: -0.772%
CCOc1ccc(-c2csc(NC(=O)c3ccc(S(=O)(=O)N4CCc5ccccc5C4)cc3)n2)cc1 | inconclusive: 15.8 µM [inhibitor, partial curve] | –
O=C(Nc1cccc(Cl)c1)Nc1ccccc1NS(=O)(=O)c1cccs1 | inconclusive: 25.1 µM [quencher, side channel, partial curve] | –
CC(Oc1ccc(Cl)cc1Cl)C(=O)Nc1ccc2oc(-c3ccncc3)nc2c1 (configuration not stated) | – | inactive: 4.35%
Cc1cccc(-n2ncc3c(NCc4ccc5c(c4)OCO5)ncnc32)c1 | inconclusive: 10 µM [quencher, side channel, partial curve] | –
CN1CCCN(S(=O)(=O)c2ccc3ccccc3c2)CC1 | – | inactive: 1.08%
O=c1c2ccccc2nc(/C=C/c2ccccc2)n1CCc1ccccc1 | – | inactive: -2.64%
O=C(C1=C[C@H](C2CCCCC2)C[C@H](OCCCCO)O1)N1CCN(Cc2ccc3c(c2)OCO3)CC1 | inconclusive: 3.55 µM [fluorescent, side channel, full curve] | –
Oc1c(Br)cc(Br)cc1/C=N/n1c(-c2ccccc2)n[nH]c1=S | inconclusive: 11.2 µM [quencher, side channel, partial curve] | –
C=C(C)C(=O)C1CCCCC1 | – | inactive: 4.07%
O=C(/C(C=Nc1cc2c(oc1=O)CCCC2=O)=C(\O)c1ccccc1)c1ccccc1 | inconclusive: 39.8 µM [quencher, side channel, single point] | –
CCOC(=O)Nc1ccc2c(c1)N(C(=O)CCN1CCOCC1)c1ccccc1S2 | inconclusive: 28.2 µM [inhibitor, partial curve] | –
COc1ccc(N=C2NC(=O)/C(=C\c3ccco3)S2)cc1 | inconclusive: 17.8 µM [quencher, side channel, partial curve] | –
CC12CC3CC(C)(C1)CC(C(=O)N1CCCC1)(C3)C2 | inconclusive: 22.4 µM [fluorescent, side channel, single point] | –
CCOC(=O)c1c(CSc2ccc(C)cc2)n(C)c2cc(Br)c(O)c(CN(C)C)c12 | inconclusive: 5.62 µM [fluorescent, side channel, full curve, poor fit] | –
CC(=O)c1ccc(NC(=O)CN2C(=O)/C(=C/C=C/c3ccccc3)SC2=S)cc1 | inconclusive: 8.91 µM [quencher, side channel, partial curve] | –
CCN1CCN(c2ccc(N=Cc3ccc(O)cc3O)cc2)CC1 | inconclusive: 22.4 µM [inhibitor, partial curve, poor fit] | –

Structure (SMILES) | Potency | FP activity change, negative = inhibition
Cc1ccc(NC(=O)Cn2c(C)cc(C)c(C#N)c2=O)c(Cl)c1 | inconclusive: 39.8 µM [fluorescent, single point] | –
CCCCC(=O)NC(c1ccc([N+](=O)[O-])cc1)c1c(O)ccc2ccccc12 (configuration not stated) | inconclusive: 22.4 µM [quencher, side channel, single point] | –
Cc1cc[n+](-c2nc([O-])sc2/C=N/Nc2ccc([N+](=O)[O-])cc2)cc1 | inconclusive: 28.2 µM [quencher, side channel, single point] | –
COc1ccc(NC(=O)N2CCc3nc(-c4ccccc4)c4c(c3C2)CO[C@@H](C)C4)cc1 | – | inactive: -8.94% [at 11.7 µM]
Nc1cc2nsnc2cc1Br | inconclusive: 7.94 µM [quencher, side channel, partial curve] | –
CCOC(=O)C1(CCOc2ccccc2)CCN(Cc2cccn2-c2ncccn2)CC1 | inconclusive: 31.6 µM [fluorescent, side channel, single point] | –
Cc1cc(NS(C)(=O)=O)c(=O)n(Cc2c(F)cccc2Cl)c1 | – | inactive: -13.3%
O=C(CCCN1C(=O)/C(=C/c2ccccc2)SC1=S)Nc1ccc(O)cc1 | inconclusive: 28.2 µM [quencher, side channel, partial curve] | –
O=C(Nc1nc(-c2cccs2)c(C(=O)C(F)(F)F)s1)c1ccccc1 | inconclusive: 12.6 µM [quencher, side channel, partial curve] | –
O=C(O)c1cccc(NC(=O)c2cn(-c3ccccc3)nc2-c2cc3ccccc3o2)c1 | inconclusive: 14.1 µM [quencher, side channel, partial curve] | –
O=c1cc(-c2cccc(O)c2O)oc2ccccc12 | – | inactive: 25.1% [at 24.8 µM]
OCc1ccc(-c2ccc(-c3ccc(CO)s3)o2)s1 | inconclusive: 20 µM [quencher, side channel, single point] | –
CC1(C)CC(=O)c2cnn(-c3nc4ccccc4[nH]3)c2C1 | inconclusive: 14.1 µM [inhibitor, partial curve] | –
Nc1c(O)ccc2c1C(=O)c1ccccc1C2=O | inconclusive: 14.1 µM [fluorescent, side channel, partial curve] | –
Cc1cc(=O)oc2cc(OCC(=O)NCCc3nc4ccccc4[nH]3)ccc12 | inconclusive: 20 µM [quencher, side channel, single point] | –
CC[C@H](C)[C@H](NC(=O)[C@H](N)Cc1ccc(O)cc1)C(=O)N[C@@H](CC(N)=O)C(=O)N[C@@H](CC(C)C)C(=O)N[C@H](C(=O)N[C@@H](C(=O)N[C@@H](CCCN=C(N)N)C(=O)N[C@@H](CCC(N)=O)C(=O)N[C@@H](CCCN=C(N)N)C(=O)N[C@H](Cc1ccc(O)cc1)C(N)=O)[C@@H](C)O)[C@@H](C)CC | – | inactive: -6.02%
Cc1ccc(C(C)C)c(OCC(=O)Nc2ccc3c(c2)nc(CCN2CCCCC2)n3C)c1 | inconclusive: 28.2 µM [inhibitor, single point] | –
CCN(CC)CCN(Cc1cc2ccc(C)c(C)c2[nH]c1=O)C(=S)NCc1ccco1 | inconclusive: 5.01 µM [fluorescent, side channel, partial curve] | –
CCOc1ccc(N2CC(C(=O)Nc3ccc4c(c3)OCO4)CC2=O)cc1 (configuration not stated) | inconclusive: 39.8 µM [fluorescent, side channel, single point] | –

Structure (SMILES) | Potency | FP activity change, negative = inhibition
O=C(Cc1ccccc1)c1c[nH]c(C(=O)C(Cl)(Cl)Cl)c1 | inconclusive: 5.01 µM [inhibitor, full curve] | –
COCCN(Cc1cc2c(C)cc(C)cc2nc1Cl)C(=O)c1ccccc1F | inconclusive: 31.6 µM [inhibitor, single point] | –
O=C(Nc1ccc2nn(-c3ccccc3)nc2c1)c1ccco1 | inconclusive: 15.8 µM [quencher, side channel, partial curve] | –
Cc1ccc(S(=O)(=O)C(C#N)c2nc3ccccc3nc2OCCO)cc1 (configuration not stated) | inconclusive: 22.4 µM [quencher, side channel, partial curve] | –
CC(=O)O[C@@H]1[C@@H](O)CN[C@@H]1Cc1ccccc1 | – | inactive: -0.726%
CCN(CC)S(=O)(=O)c1ccc(N2CCN(CCOc3ccc(OC)cc3)CC2)nc1 | – | inactive: -7.05%
O=C(CCN1C(=O)/C(=C/c2cccs2)SC1=S)Nc1ccc(O)cc1 | inconclusive: 22.4 µM [inhibitor, single point] | –
COc1cc(/C=N/NC(=O)c2cc3ccccc3cc2O)ccc1OCCN1CCCCC1 | inconclusive: 15.8 µM [quencher, side channel, partial curve] | –
CC1=NN(c2nc(-c3ccc(C)cc3)cs2)C(=O)C1N=Nc1ccccc1O (configuration not stated) | inconclusive: 7.94 µM [quencher, side channel, full curve] | –
CCC(C)(C)NC(=O)C(c1ccc(OC)cc1)N(C(=O)CCC(=O)Nc1cc(C)on1)c1ccc(OC)cc1OC (configuration not stated) | – | inactive: -17.8%
COc1ccc(Nc2nc(N)nc(CSC(=S)N3CCC(C)CC3)n2)cc1 | inconclusive: 7.08 µM [quencher, side channel, full curve, poor fit] | –
COc1cc(/C=C2\C(=O)ON=C2c2ccccc2)cc(Br)c1O | inconclusive: 20 µM [quencher, side channel, single point] | –
O=S(=O)(Nc1cccc2cccnc12)c1ccc(Br)s1 | inconclusive: 17.8 µM [quencher, side channel, partial curve] | –
CC(C)(C)C(=O)NC(=S)NNC(=O)c1ccc(-c2ccccc2)cc1 | inconclusive: 14.1 µM [quencher, side channel, partial curve] | –
N#CC1=C(N)N2C(=C(C#N)C1c1cccc(Br)c1)Nc1ccccc12 (configuration not stated) | inconclusive: 11.2 µM [quencher, side channel, partial curve] | –
COc1ccc(C2=NN(C(C#N)c3ccc(OC)cc3)C(c3ccccc3)C2)cc1 (configuration not stated) | inconclusive: 22.4 µM [quencher, side channel, partial curve, poor fit] | –
COc1cc(O)ccc1/C=N/NC(=O)c1ccc([N+](=O)[O-])cc1 | inconclusive: 12.6 µM [quencher, side channel, partial curve] | –
O=C(Nc1cccc(C(F)(F)F)c1)N1CCC(c2nc(-c3ccc(F)cc3)no2)CC1 | inconclusive: 15.8 µM [quencher, side channel, partial curve] | –
O=C(OC1CCOC1=O)c1cc(-c2cccc(Br)c2)nc2ccccc12 (configuration not stated) | inconclusive: 17.8 µM [quencher, side channel, partial curve] | –
